Some of the results follow. Single values are uncertain, as repeats are few or missing.
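Note: cells treated in 1,536-well plates, then fixed and DAPI-stained, with nuclei counted from automated high-throughput microscope images.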

The test system of this test is SkMel28. Briefly: cell count relative to DMSO control; melanoma cells; higher = more viable cells. The conditions noted are these: library dose: standard library concentration; 72 h.
Compound `COc1cc([C@@H]2c3cc4c(cc3[C@@H](O[C@@H]3O[C@@H]5CO[C@@H](C)O[C@H]5[C@H](O)[C@H]3O)[C@H]3COC(=O)[C@H]23)OCO4)cc(OC)c1O` [etoposide] + C=CCn1c(=O)c2cnc(Nc3ccc(N4CCN(C)CC4)cc3)nc2n1-c1cccc(C(C)(C)O)n1 [MK1775] (first compound 0.1 µM, partner dose 0.1 µM) came in with a cell count of 41.1%.

For the compound `C[C@]1(O)C[C@@H](c2nc(-c3ccc4ccc(-c5ccccc5)nc4c3)c3c(N)nccn32)C1` + Cc1cc(N2CCOCC2)cc2[nH]c(-c3c(NC[C@@H](O)c4cccc(Cl)c4)cc[nH]c3=O)nc12 [BMS536924] (first compound 2 µM, partner dose 1 µM), the cell count came to 91.6%. For the compound `Cn1cnc2c(F)c(Nc3ccc(Br)cc3Cl)c(C(=O)NOCCO)cc21` [selumetinib] + O=C(CCCCCCC(=O)Nc1ccccc1)NO [vorinostat] (first compound 0.075 µM, partner dose 0.4 µM), the cell count amounted to 39.1%. For `Cn1cnc2c(F)c(Nc3ccc(Br)cc3Cl)c(C(=O)NOCCO)cc21` [selumetinib] + CC(C)(C)c1cnc(CSc2cnc(NC(=O)C3CCNCC3)s2)o1 [SNS-032] (first compound 0.075 µM, partner dose 0.05 µM) the value was 46.5%; for `COc1cc([C@@H]2c3cc4c(cc3[C@@H](O[C@@H]3O[C@@H]5CO[C@@H](C)O[C@H]5[C@H](O)[C@H]3O)[C@H]3COC(=O)[C@H]23)OCO4)cc(OC)c1O` [etoposide] + Cc1ccc(NC(=O)c2cccc(N(C)C)c2)cc1NC(=O)c1ccc(O)cc1 [ZM336372] (first compound 0.1 µM, partner dose 10 µM), 67.3%. For `Cn1cnc2c(F)c(Nc3ccc(Br)cc3Cl)c(C(=O)NOCCO)cc21` [selumetinib] + COc1cc2c(Oc3ccc4[nH]c(C)cc4c3F)ncnc2cc1OCCCN1CCCC1 [cediranib] (first compound 0.075 µM, partner dose 2 µM) the value was 87.6%; for `COc1cc([C@@H]2c3cc4c(cc3[C@@H](O[C@@H]3O[C@@H]5CO[C@@H](C)O[C@H]5[C@H](O)[C@H]3O)[C@H]3COC(=O)[C@H]23)OCO4)cc(OC)c1O` [etoposide] + CN(C)S(=O)(=O)c1ccc2c(c1)/C(=C/c1cc3c([nH]1)CCCC3)C(=O)N2 [SU6656] (first compound 0.1 µM, partner dose 2 µM), 59.1%; for `COc1cc([C@@H]2c3cc4c(cc3[C@@H](O[C@@H]3O[C@@H]5CO[C@@H](C)O[C@H]5[C@H](O)[C@H]3O)[C@H]3COC(=O)[C@H]23)OCO4)cc(OC)c1O` [etoposide] + CCCS(=O)(=O)Nc1ccc(F)c(C(=O)c2c[nH]c3ncc(Cl)cc23)c1F [PLX4720] (first compound 0.1 µM, partner dose 0.4 µM), 55%.

The compound `Cn1cnc2c(F)c(Nc3ccc(Br)cc3Cl)c(C(=O)NOCCO)cc21` [selumetinib] + CN(NC(=O)CC(=O)NN(C)C(=S)c1ccccc1)C(=S)c1ccccc1 [STA4783] (first compound 0.075 µM, partner dose 0.03 µM) registered a cell count of 26%. `CCN(CC)CCNC(=O)c1c(C)[nH]c(/C=C2\C(=O)Nc3ccc(F)cc32)c1C` [sunitinib] + O=C(CCCCCCC(=O)Nc1ccccc1)NO [vorinostat] (first compound 2 µM, partner dose 0.4 µM) showed a cell count of 42.9%. Compound `COc1cc([C@@H]2c3cc4c(cc3[C@@H](O[C@@H]3O[C@@H]5CO[C@@H](C)O[C@H]5[C@H](O)[C@H]3O)[C@H]3COC(=O)[C@H]23)OCO4)cc(OC)c1O` [etoposide] + C[C@@H]1CCN(C(=O)CC#N)C[C@@H]1N(C)c1ncnc2[nH]ccc12 [CP690550] (first compound 0.1 µM, partner dose 5 µM) registered a cell count of 95.6%. `CCN(CC)CCNC(=O)c1c(C)[nH]c(/C=C2\C(=O)Nc3ccc(F)cc32)c1C` [sunitinib] + COc1cc(Nc2ncc(F)c(Nc3ccc4c(n3)NC(=O)C(C)(C)O4)n2)cc(OC)c1OC [Tamatinib] (first compound 2 µM, partner dose 2 µM) displayed a cell count of 51.1%. `COc1cc([C@@H]2c3cc4c(cc3[C@@H](O[C@@H]3O[C@@H]5CO[C@@H](C)O[C@H]5[C@H](O)[C@H]3O)[C@H]3COC(=O)[C@H]23)OCO4)cc(OC)c1O` [etoposide] + OCCn1cc(-c2cnc3nnn(Cc4ccc5ncccc5c4)c3n2)cn1 [PF04217903] (first compound 0.1 µM, partner dose 5 µM): the cell count worked out at 89.7%.

With `C[C@]1(O)C[C@@H](c2nc(-c3ccc4ccc(-c5ccccc5)nc4c3)c3c(N)nccn32)C1` + CN(C)S(=O)(=O)c1ccc2c(c1)/C(=C/c1cc3c([nH]1)CCCC3)C(=O)N2 [SU6656] (first compound 2 µM, partner dose 2 µM), the cell count worked out at 43.6%.

`C[C@]1(O)C[C@@H](c2nc(-c3ccc4ccc(-c5ccccc5)nc4c3)c3c(N)nccn32)C1` + COc1cc2c(Oc3ccc4[nH]c(C)cc4c3F)ncnc2cc1OCCCN1CCCC1 [cediranib] (first compound 2 µM, partner dose 2 µM) yielded a cell count of 148%. For the compound `CCN(CC)CCNC(=O)c1c(C)[nH]c(/C=C2\C(=O)Nc3ccc(F)cc32)c1C` [sunitinib] + CO[C@@H]1[C@H](N(C)C(=O)c2ccccc2)C[C@H]2O[C@]1(C)n1c3ccccc3c3c4c(c5c6ccccc6n2c5c31)C(=O)NC4 [Midostaurin] (first compound 2 µM, partner dose 0.4 µM), the cell count came to 68.1%. Compound `COc1cc([C@@H]2c3cc4c(cc3[C@@H](O[C@@H]3O[C@@H]5CO[C@@H](C)O[C@H]5[C@H](O)[C@H]3O)[C@H]3COC(=O)[C@H]23)OCO4)cc(OC)c1O` [etoposide] + CC(C)(C)c1cnc(CSc2cnc(NC(=O)C3CCNCC3)s2)o1 [SNS-032] (first compound 0.1 µM, partner dose 0.05 µM) registered a cell count of 58.7%. Turning to `C[C@]1(O)C[C@@H](c2nc(-c3ccc4ccc(-c5ccccc5)nc4c3)c3c(N)nccn32)C1` + C=CCn1c(=O)c2cnc(Nc3ccc(N4CCN(C)CC4)cc3)nc2n1-c1cccc(C(C)(C)O)n1 [MK1775] (first compound 2 µM, partner dose 0.1 µM), the cell count is 38.5%. For `COc1cc([C@@H]2c3cc4c(cc3[C@@H](O[C@@H]3O[C@@H]5CO[C@@H](C)O[C@H]5[C@H](O)[C@H]3O)[C@H]3COC(=O)[C@H]23)OCO4)cc(OC)c1O` [etoposide] + O=C(CCCCCCC(=O)Nc1ccccc1)NO [vorinostat] (first compound 0.1 µM, partner dose 0.4 µM) the value was 55.3%; for `COc1cc([C@@H]2c3cc4c(cc3[C@@H](O[C@@H]3O[C@@H]5CO[C@@H](C)O[C@H]5[C@H](O)[C@H]3O)[C@H]3COC(=O)[C@H]23)OCO4)cc(OC)c1O` [etoposide] + O=C(O)c1ccc(-c2c[nH]c3ncc(-c4ccccc4)cc23)cc1C1CCCC1 [GSK650394] (first compound 0.1 µM, partner dose 0.8 µM), 64.7%. On to `Cn1cnc2c(F)c(Nc3ccc(Br)cc3Cl)c(C(=O)NOCCO)cc21` [selumetinib] + Cc1ccc(NC(=O)c2cccc(N(C)C)c2)cc1NC(=O)c1ccc(O)cc1 [ZM336372] (first compound 0.075 µM, partner dose 10 µM), for which the cell count was 51%.

`C[C@]1(O)C[C@@H](c2nc(-c3ccc4ccc(-c5ccccc5)nc4c3)c3c(N)nccn32)C1` + OCCn1cc(-c2cnc3nnn(Cc4ccc5ncccc5c4)c3n2)cn1 [PF04217903] (first compound 2 µM, partner dose 5 µM) yielded a cell count of 109%. For `CCN(CC)CCNC(=O)c1c(C)[nH]c(/C=C2\C(=O)Nc3ccc(F)cc32)c1C` [sunitinib] + CN(C)S(=O)(=O)c1ccc2c(c1)/C(=C/c1cc3c([nH]1)CCCC3)C(=O)N2 [SU6656] (first compound 2 µM, partner dose 2 µM) the value was 33.7%; for `CCN(CC)CCNC(=O)c1c(C)[nH]c(/C=C2\C(=O)Nc3ccc(F)cc32)c1C` [sunitinib] + CC(C)(C)c1cnc(CSc2cnc(NC(=O)C3CCNCC3)s2)o1 [SNS-032] (first compound 2 µM, partner dose 0.05 µM), 30.2%.

`Cn1cnc2c(F)c(Nc3ccc(Br)cc3Cl)c(C(=O)NOCCO)cc21` [selumetinib] + O=C(Nc1cccc(Cl)c1)Nc1ncc(CCNc2ncnc3ccsc23)s1 [SNS314] (first compound 0.075 µM, partner dose 0.004 µM): the cell count amounted to 55.8%. For the compound `COc1cc([C@@H]2c3cc4c(cc3[C@@H](O[C@@H]3O[C@@H]5CO[C@@H](C)O[C@H]5[C@H](O)[C@H]3O)[C@H]3COC(=O)[C@H]23)OCO4)cc(OC)c1O` [etoposide] + CC1(C)NC(=O)N(c2ccc([N+](=O)[O-])c(C(F)(F)F)c2)C1=O [nilutamide] (first compound 0.1 µM, partner dose 5 µM), the cell count amounted to 71.7%.

The values are drawn from the supplement of paper PMC4604168 (melanoma cell lines).
